Test results: paper PMC4099185, “Structural Integrity of the Antigen Is a Determinant for the Induction of T-Helper Type-1 Immunity in Mice by Gene Gun Vaccines against E.coli Beta-Galactosidase” (PLoS ONE, 2014)

B1: delta-βGal, βGal with deletion of the N-terminus ([…]), expressed from pCI-delta-βGal (domain or fragment)
chain: not shown
notes: beta-galactosidase of E. coli without […] (includes the alpha peptide); numbering according to NCBI Acc; No. YP_008570279; Methods say […] deleted; results say 40 residues deleted from the N-terminus; also called ΔβGal; ΔN; source: BHK21 cells, transfected with pCI-delta-βGal, in lysate (PBS)
B2: recombinant 6×His-tagged N-terminally truncated delta-βGal (domain or fragment)
chain: not shown
notes: beta-galactosidase of E. coli without […]; ORF excised from pCI-delta-βGal by NcoI/NotI and ligated into pHIS-parallel II; numbering according to NCBI Acc; No. YP_008570279; Beside the dimer the preparation holds high molecular weight aggregates (DLS, SEC); also called recombinant delta-βGal; truncated 6×HIS-tagged ΔβGal

Key:
[1] = molecular target: the molecule itself; experiment: SEC; crude lysates in PBS of transfected BHK21 cells on a Superose-6 column; fractions coated on ELISA plates and βGal detected with a murine anti-βGal antiserum
[2] = molecular target: the molecule itself; experiment: dynamic light scattering; 1 mg/mL protein in 10 mM potassium phosphate buffer, pH 7.4; supernatant after centrifugation at 14.000 x g; DLS 802 instrument

Protein | stoichiometry N [1] | stoichiometry N [2]
B1 | 2 | –
B2 | – | 2
